# This is one part of the list.
# How the values were obtained:
# Assay in all cases: glycan array binding signal (z-score within array); higher = stronger binding
# Conditions in all cases: glycan notation: IUPAC condensed, linker removed
# [1] = target: Neu5Ac(a2-6)Gal(b1-4)GlcNAc(b1-6)[Gal(b1-3)GlcNAc(b1-3)]Gal(b1-4)Glc
# Procedure, shortened: (§1)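 Glycan array data came from 3228 arrays in the Consortium for Functional Glycomics database, and only arrays with an available protein sequence were kept. Glycan names were put into IUPAC-condensed notation, and columns mapping to the same glycan were averaged. The binding signal is a within-array Z-score, averaged across arrays of one protein sequence run at different concentrations or buffers and across linkers. A negative Z-score can be read as non-binding.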
# [2] = target: Neu5Ac(a2-6)Gal(b1-4)GlcNAc(b1-6)[Gal(b1-3)]GalNAc
# Procedure, shortened: as §1
# [3] = target: Neu5Ac(a2-6)Gal(b1-4)GlcNAc6S
# Procedure, shortened: as §1
# Neu5Ac(a2-6)GalNAc = target: Neu5Ac(a2-6)GalNAc
# Procedure, shortened: as §1
# [4] = target: Neu5Ac(a2-6)GalNAc(b1-4)GlcNAc
# Procedure, shortened: as §1
# [5] = target: Neu5Ac(a2-6)GalNAc(b1-4)GlcNAc6S
# Procedure, shortened: as §1
# [6] = target: Neu5Ac(a2-6)GlcNAc(b1-4)GlcNAc
# Procedure, shortened: as §1
# [7] = target: Neu5Ac(a2-6)GlcNAc(b1-4)GlcNAc(b1-4)GlcNAc
# Procedure, shortened: as §1
# Neu5Ac(a2-8)Neu5Ac = target: Neu5Ac(a2-8)Neu5Ac
# Procedure, shortened: as §1
# [8] = target: Neu5Ac(a2-8)Neu5Ac(a2-3)Gal(b1-3)GalNAc(b1-4)[Neu5Ac(a2-3)]Gal(b1-4)Glc
# Procedure, shortened: as §1
# [9] = target: Neu5Ac(a2-8)Neu5Ac(a2-3)Gal(b1-3)GalNAc(b1-4)[Neu5Ac(a2-8)Neu5Ac(a2-3)]Gal(b1-4)Glc
# Procedure, shortened: as §1
# [10] = target: Neu5Ac(a2-8)Neu5Ac(a2-3)Gal(b1-4)Glc
# Procedure, shortened: as §1
# [11] = target: Neu5Ac(a2-8)Neu5Ac(a2-3)Gal(b1-4)GlcNAc
# Procedure, shortened: as §1
# [12] = target: Neu5Ac(a2-8)Neu5Ac(a2-3)[Gal(b1-3)GalNAc(b1-4)]Gal(b1-4)Glc
# Procedure, shortened: as §1
# [13] = target: Neu5Ac(a2-8)Neu5Ac(a2-3)[GalNAc(b1-4)]Gal(b1-4)Glc
# Procedure, shortened: as §1
# [14] = target: Neu5Ac(a2-8)Neu5Ac(a2-8)Neu5Ac
# Procedure, shortened: as §1
# [15] = target: Neu5Ac(a2-8)Neu5Ac(a2-8)Neu5Ac(a2-3)Gal(b1-4)Glc
# Procedure, shortened: as §1
# [16] = target: Neu5Ac(a2-8)Neu5Ac(a2-8)Neu5Ac(a2-3)[Gal(b1-3)GalNAc(b1-4)]Gal(b1-4)Glc
# Procedure, shortened: as §1
# [17] = target: Neu5Ac(a2-8)Neu5Ac(a2-8)Neu5Ac(a2-3)[GalNAc(b1-4)]Gal(b1-4)Glc
# Procedure, shortened: as §1
# [18] = target: Neu5Ac(a2-8)Neu5Ac(a2-8)Neu5Ac(a2-8)Neu5Ac(a2-3)[GalNAc(b1-4)]Gal(b1-4)Glc
# Procedure, shortened: as §1
# [19] = target: Neu5Ac(a2-8)Neu5Gc(a2-3)Gal(b1-4)GlcNAc
# Procedure, shortened: as §1
# [20] = target: Neu5Ac(b2-6)Gal(b1-4)GlcNAc
# Procedure, shortened: as §1
# Neu5Ac(b2-6)GalNAc = target: Neu5Ac(b2-6)GalNAc
# Procedure, shortened: as §1
# [21] = target: Neu5Ac9Ac(a2-3)Gal(b1-3)GlcNAc
# Procedure, shortened: as §1
# [22] = target: Neu5Ac9Ac(a2-3)Gal(b1-4)GlcNAc
# Procedure, shortened: as §1
# [23] = target: Neu5Ac9Ac(a2-6)Gal(b1-4)GlcNAc
# Procedure, shortened: as §1
# [24] = target: Neu5Gc(a2-3)Gal(b1-3)GlcNAc
# Procedure, shortened: as §1
# [25] = target: Neu5Gc(a2-3)Gal(b1-3)[Fuc(a1-4)]GlcNAc
# Procedure, shortened: as §1
# Neu5Gc(a2-3)Gal(b1-4)Glc = target: Neu5Gc(a2-3)Gal(b1-4)Glc
# Procedure, shortened: as §1
# [26] = target: Neu5Gc(a2-3)Gal(b1-4)GlcNAc
# Procedure, shortened: as §1
# [27] = target: Neu5Gc(a2-3)Gal(b1-4)GlcNAc(b1-3)Gal(b1-4)GlcNAc(b1-2)Man(a1-3)[Neu5Gc(a2-3)Gal(b1-4)GlcNAc(b1-3)Gal(b1-4)GlcNAc(b1-2)Man(a1-6)]Man(b1-4)GlcNAc(b1-4)GlcNAc
# Procedure, shortened: as §1
# [28] = target: Neu5Gc(a2-3)Gal(b1-4)[Fuc(a1-3)]GlcNAc
# Procedure, shortened: as §1
# [29] = target: Neu5Gc(a2-6)Gal(b1-4)GlcNAc
# Procedure, shortened: as §1
# Neu5Gc(a2-6)GalNAc = target: Neu5Gc(a2-6)GalNAc
# Procedure, shortened: as §1
# [30] = target: Neu5Gc(a2-8)Neu5Ac(a2-3)Gal(b1-4)GlcNAc
# Procedure, shortened: as §1
# [31] = target: Neu5Gc(a2-8)Neu5Gc(a2-3)Gal(b1-4)GlcNAc
# Procedure, shortened: as §1
# [32] = target: Neu5Gc(a2-8)Neu5Gc(a2-3)Gal(b1-4)GlcNAc(b1-3)Gal(b1-4)GlcNAc
# Procedure, shortened: as §1
# [33] = target: Neu5Gc(a2-8)Neu5Gc(a2-6)Gal(b1-4)GlcNAc
# Procedure, shortened: as §1
# [34] = target: Neu5Gc(b2-6)Gal(b1-4)GlcNAc
# Procedure, shortened: as §1
binder,measurement,setting,value
"CFEM-CGl (Candida glabrata), Q6FRS0 (protein) VLATPPACLLACVAQVSKQSSQCHTLNQVGCFCENENTAIKNCLDSICPNGNSDAAYTAFKNSCGDVGKAVASV",glycan array binding signal (z-score),[1],-0.493
same,glycan array binding signal (z-score),[2],0.876
same,glycan array binding signal (z-score),[3],-0.102
same,glycan array binding signal (z-score),Neu5Ac(a2-6)GalNAc,-0.255
same,glycan array binding signal (z-score),[4],0.06
same,glycan array binding signal (z-score),[5],-0.122
same,glycan array binding signal (z-score),[6],-0.451
same,glycan array binding signal (z-score),[7],-0.504
same,glycan array binding signal (z-score),Neu5Ac(a2-8)Neu5Ac,-0.037
same,glycan array binding signal (z-score),[8],-0.142
same,glycan array binding signal (z-score),[9],-0.248
same,glycan array binding signal (z-score),[10],-0.373
same,glycan array binding signal (z-score),[11],-0.527
same,glycan array binding signal (z-score),[12],0.657
same,glycan array binding signal (z-score),[13],-0.151
same,glycan array binding signal (z-score),[14],-0.231
same,glycan array binding signal (z-score),[15],-0.465
same,glycan array binding signal (z-score),[16],-0.372
same,glycan array binding signal (z-score),[17],-0.42
same,glycan array binding signal (z-score),[18],-0.195
same,glycan array binding signal (z-score),[19],-0.396
same,glycan array binding signal (z-score),[20],-0.305
same,glycan array binding signal (z-score),Neu5Ac(b2-6)GalNAc,0.161
same,glycan array binding signal (z-score),[21],-0.26
same,glycan array binding signal (z-score),[22],-0.485
same,glycan array binding signal (z-score),[23],-0.421
same,glycan array binding signal (z-score),[24],-0.262
same,glycan array binding signal (z-score),[25],-0.349
same,glycan array binding signal (z-score),Neu5Gc(a2-3)Gal(b1-4)Glc,-0.036
same,glycan array binding signal (z-score),[26],-0.194
same,glycan array binding signal (z-score),[27],-0.356
same,glycan array binding signal (z-score),[28],-0.096
same,glycan array binding signal (z-score),[29],-0.523
same,glycan array binding signal (z-score),Neu5Gc(a2-6)GalNAc,-0.19
same,glycan array binding signal (z-score),[30],-0.424
same,glycan array binding signal (z-score),[31],-0.423
same,glycan array binding signal (z-score),[32],-0.014
same,glycan array binding signal (z-score),[33],-0.359
same,glycan array binding signal (z-score),[34],-0.21
